From article PMC4336329 (PLoS ONE, 2015)
Among all 310,000 compounds or so, about 14,000 (4.5%) showed an effect of 50% or more. The effect is printed as a negative number. The list shows a part of the results.

What follows are molecules tested against human ether-à-go-go-related gene (hERG) potassium channel (human, UniProt Q12809) (assay: primary screen, population patch clamp on CHO cells stably expressing hERG).
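Also: peak tail current of the secondary pulse compared with the same well before compound.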

Sequence of human ether-à-go-go-related gene (hERG) potassium channel (Q12809 whole entry, looked up): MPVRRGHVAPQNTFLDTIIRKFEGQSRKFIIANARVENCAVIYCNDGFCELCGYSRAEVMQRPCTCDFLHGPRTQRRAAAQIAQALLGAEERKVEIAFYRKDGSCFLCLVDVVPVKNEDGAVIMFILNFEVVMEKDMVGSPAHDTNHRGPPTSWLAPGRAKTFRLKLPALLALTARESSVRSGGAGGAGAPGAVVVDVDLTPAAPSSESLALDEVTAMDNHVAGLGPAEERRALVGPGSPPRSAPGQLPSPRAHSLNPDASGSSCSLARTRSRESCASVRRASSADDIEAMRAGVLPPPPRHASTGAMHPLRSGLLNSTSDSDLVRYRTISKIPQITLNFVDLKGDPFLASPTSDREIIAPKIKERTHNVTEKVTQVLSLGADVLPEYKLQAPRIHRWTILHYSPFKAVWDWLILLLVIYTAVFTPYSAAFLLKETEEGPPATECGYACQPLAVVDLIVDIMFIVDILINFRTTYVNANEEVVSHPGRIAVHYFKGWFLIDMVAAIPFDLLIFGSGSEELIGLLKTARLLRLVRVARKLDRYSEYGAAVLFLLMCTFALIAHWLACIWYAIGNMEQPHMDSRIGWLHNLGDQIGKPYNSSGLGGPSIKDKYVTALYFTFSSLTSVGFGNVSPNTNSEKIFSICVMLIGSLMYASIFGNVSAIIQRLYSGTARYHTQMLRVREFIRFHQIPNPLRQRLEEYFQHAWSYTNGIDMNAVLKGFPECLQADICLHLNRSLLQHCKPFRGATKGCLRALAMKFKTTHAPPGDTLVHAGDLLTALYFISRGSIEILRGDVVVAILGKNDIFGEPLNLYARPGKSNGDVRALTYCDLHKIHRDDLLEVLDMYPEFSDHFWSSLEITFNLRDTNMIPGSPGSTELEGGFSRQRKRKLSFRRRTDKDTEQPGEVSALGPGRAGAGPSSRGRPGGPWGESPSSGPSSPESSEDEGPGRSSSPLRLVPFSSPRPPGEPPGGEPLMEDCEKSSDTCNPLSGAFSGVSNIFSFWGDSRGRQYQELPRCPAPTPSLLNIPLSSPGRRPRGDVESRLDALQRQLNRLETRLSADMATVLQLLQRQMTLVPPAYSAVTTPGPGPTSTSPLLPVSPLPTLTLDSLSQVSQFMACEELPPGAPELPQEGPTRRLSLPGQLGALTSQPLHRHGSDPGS

| SMILES | hERG current change (%, negative = inhibition) at 10uM [%] |
| --- | --- |
| Cc1ccccc1-c1nc(CS(=O)CC(=O)NCCN2CCN(Cc3ccccc3)CC2)c(C)o1 (centres unmarked) | -58.7 |
| CC1(C)CC(=O)C(C=Nc2ccc3c(c2)OCO3)=C(O)C1 | -10.2 |
| COc1ccc(CN2CCN(CCCc3ccccc3)C(CCO)C2)cc1OC (centres unmarked) | -72.8 |
| CCOC(=O)NC(Nc1cc(C)on1)(C(F)(F)F)C(F)(F)F | 11.7 |
| Cc1ccccc1NC(=O)CC1SC(=NC2CCCCC2)NC1=O (centres unmarked) | 4.09 |
| CCn1cc(C(=O)Nc2ncccc2O)c(=O)c2cc(F)c(N3CCN(C(=O)c4ccco4)CC3)cc21 | 1.98 |
| CC(=O)N1c2ccc(S(=O)(=O)NCCC(=O)N(C)C3CCCCC3)cc2CC1C (centres unmarked) | -0.795 |
| Cc1ccc(CN2CCN(CC(=O)NC(C)c3ccc4c(c3)OCCO4)C2=O)cc1 (centres unmarked) | -9.8 |
| Cc1cccc(N2CC(O)(c3cccs3)[N+]3=C2CCCC3)c1.[Br-] (centres unmarked) | -12.3 |
| N=c1c(C(=O)NCc2ccco2)cc2c(=O)n3ccccc3nc2n1C1CCCC1 | -77 |
| CN1CCN(c2ccc(C(N)=O)cc2[N+](=O)[O-])CC1 | 7.57 |
| O=C(NCc1ccc(Cl)cc1)c1ccc(NC(=O)C2CCCO2)cc1 (centres unmarked) | 13.2 |
| COCCN1Cc2cccc(C(=O)NCCCN3CCCC3=O)c2C1=O | 7.02 |
| Cc1cccc(N2CCN(C(=O)c3ccc4c(c3)c(C)c(C)n4C)CC2C)c1 (centres unmarked) | 0.358 |
| CCOC(=O)C1CCCN(C(=O)c2cc(Nc3ccc(OC)c(OC)c3)nc3ccccc23)C1 (centres unmarked) | -14.9 |
| CNC(=S)Nc1ccc([N+](=O)[O-])cc1 | 11.9 |
| CN(CC(=O)Nc1ccc(Cl)c(C(F)(F)F)c1)Cc1cc(=O)n2ccsc2n1 | -82.8 |
| Cc1ccc(N2C(SCC(=O)O)=NC(=Nc3cccc(C)c3)C23CCCC3)cc1.I | 4.25 |
| CC(C)NS(=O)(=O)c1ccc(OCC(=O)N2CCN(C)CC2)cc1 | 12.3 |
| CC1CCc2c(sc(NC(=O)COC(=O)c3ccccc3NCc3ccco3)c2C#N)C1 (centres unmarked) | 7.34 |
| COc1ccc(C)cc1S(=O)(=O)N1CCN(Cc2ccccc2)CC1 | -22.1 |
| COc1cc(C=O)c(Br)cc1OC1CCCC1 | 6.63 |

| SMILES | hERG current change (%, negative = inhibition) at 10uM [%] |
| --- | --- |
| CCOC(=O)C1(c2ccccc2)CCN(CCC(=O)Nc2ccccc2OC)CC1 | -45.7 |
| COc1cc(OC)cc(C(=O)NNC(=O)CCOc2ccccc2OC)c1 | 7.89 |
| COc1ccccc1C(=O)Nc1ccc(OCc2nnc3c4ccccc4c(C)nn23)cc1 | -10 |
| Cc1ccc(NC(=O)NC2=N/C(=C(/C#N)C(=O)N3CCCC3)c3ccccc32)cc1 | -22.7 |
| CN(CC(=O)Nc1nc2ccccc2s1)S(=O)(=O)c1ccc(Cl)cc1 | -6.79 |
| N/C(CS(=O)(=O)c1ccccc1)=N\OC(=O)c1ccc(F)cc1 | -0.547 |
| COC(=O)c1cccc(C(=O)N2CCCC(CCC(=O)N(C)CCc3ccccn3)C2)c1 (centres unmarked) | -10.3 |
| CC(=O)NC(Cc1ccccc1C)C(=O)NC1CCN(c2ncccc2[N+](=O)[O-])CC1 (centres unmarked) | -1.73 |
| Cc1ccc(SCCNC(=O)c2ccc(CN3CCOCC3)cc2)cc1 | -32.6 |
| COc1cccc(NC(=O)C(c2ccccc2)N2CCCC2)c1 (centres unmarked) | -0.539 |
| CCN(CC)C(=O)c1sc(NC(=O)c2ccc3c(c2)OCO3)c(C#N)c1C | 4.84 |
| CC1(c2ccc(Cl)cc2)NC(=O)N(CC(=O)NCc2ccc(F)cc2)C1=O (centres unmarked) | -20.2 |
| Cc1ccc(NC(=O)CCCN2C(=S)NC(C)(C)CC2C)cc1 (centres unmarked) | 15.1 |
| O=c1c(Cl)c(N2CCC3(CC2)OCCO3)cnn1C12CC3CC(CC(C3)C1)C2 | 10.9 |
| O=C(NC1CCCC1)C(c1cccnc1)N(C(=O)c1csnn1)c1ccccc1Cl (centres unmarked) | -10.8 |
| Nc1sccc1C(=O)c1ccccc1 | 4.8 |
| O=C(CCCCC(=O)Nc1ccccc1)Nc1ccccc1 | 22.9 |
| COc1ccc(-n2c(=O)c3c4c(sc3n3c(=S)[nH]nc23)COC(C(C)C)C4)cc1 (centres unmarked) | 24.1 |
| CCn1c(COc2cccc(OC)c2)nnc1SCC(=O)N1CCOCC1 | -15 |
| CCOC(=O)c1sc(NC(=O)/C=C/c2ccccc2)nc1C | 12.8 |
| Cc1ccc(OCC(=O)N(C)CC(=O)Nc2ccc(F)cc2)c([N+](=O)[O-])n1 | -24.2 |
| O=C1CC(c2ccccc2F)c2cc3c(cc2N1)CCC3 (centres unmarked) | 5.73 |

| SMILES | hERG current change (%, negative = inhibition) at 10uM [%] |
| --- | --- |
| CCc1cccc(C)c1NS(=O)(=O)c1c(C)nc2sccn2c1=O | -12.4 |
| Cc1ccc(-c2ccc(=O)n(CC(=O)N3CCC4(CC3)OCCO4)n2)cc1 | 5.07 |
| CCN1CCN(C(=O)c2ccccc2Nc2ccc(SC(F)F)cc2)CC1.Cl | -45.8 |
| Cc1cc(SCC(=O)Nc2ccccc2)n2ncc(-c3ccccc3)c2n1 | 14.4 |
| CC(O)[C@H](NC(=O)C1CCN(C(=O)[C@H](Cc2ccccc2)NC(=O)OC(C)(C)C)CC1)C(=O)O (some centres unmarked) | 20.6 |
| O=C1CN(C(=O)COc2cccc(F)c2)c2ccccc2N1 | -16.9 |
| COc1cccc(NC(=O)C2C(c3ccccc3)C2(Cl)Cl)c1 (centres unmarked) | 10.7 |
| CC(=O)N=c1c(C#N)cc2c(=O)n3ccccc3nc2n1CCCOC(C)C | -13.6 |
| CCc1ccccc1NC(=O)CSC1=C(C#N)C(c2ccc3c(c2)OCO3)C2=C(CCCC2=O)N1 (centres unmarked) | 4.01 |
| COc1cccc(NC(=S)N(CCCN2CCCC2)Cc2ccco2)c1 | -46.3 |
| CCC(C(=O)Nc1ccccc1C(=O)N1CCCC1)N1C(=O)c2ccccc2C1=O (centres unmarked) | -5.08 |
| Cl.OCCNc1nc(Nc2cccc(O)c2)nc2ccccc12 | -23.8 |
| CCC/C(=N\NC(=O)C1CCCC1)c1ccccc1 | 6.6 |
| Cc1ccc(NC(=O)C2CCCN(S(=O)(=O)c3ccc4[nH]c(=O)ccc4c3)C2)c(C)c1 (centres unmarked) | 3.65 |
| Cc1nn(-c2ccccc2)c2c1C(O)CC(C)(C)C2 (centres unmarked) | 17.8 |
| Cc1cccc(NC(=O)CCC(=O)N2CCOCC2)n1 | 5.77 |
| COc1ccc(-n2nnnc2SCC(=O)NCCc2ccccc2)cc1OC | 4.01 |
| Cl.O=C1[C@H]2CCCC[C@H]2C(=O)N1CCCCN1CCN(c2nsc3ccccc23)CC1 | -74.3 |
| CC(C)NC(=O)c1noc2cc([N+](=O)[O-])ccc12 | -4.48 |
| O=C(CSc1nnc(-c2ccco2)n1Cc1ccco1)Nc1ccccc1 | -70.7 |
| O=C(N/N=C/c1ccc([N+](=O)[O-])cc1)c1cccs1 | 10.2 |
| CC(C)CC(=O)Nc1c2c(nn1-c1ccc([N+](=O)[O-])cc1)CS(=O)(=O)C2 | -32.5 |

| SMILES | hERG current change (%, negative = inhibition) at 10uM [%] |
| --- | --- |
| O=C(COc1coc(CN2CCN(c3ccccc3F)CC2)cc1=O)NC1CCCCC1 | -21.6 |
| CCOc1ccc(/C=C(/NC(=O)c2ccccc2)C(=O)NCCC(=O)O)cc1 | 24 |
| CC1CCCC2(C1)NC(=S)c1c(sc3c1CCCC3)N2 (centres unmarked) | 18.8 |
| COC(=O)c1c(C)[nH]c(O)c1C=Nc1ccc(C(C)C)cc1 | -3.59 |
| O=C(Cn1nc(Cc2cccnc2)c2ccccc2c1=O)N1CCN(C(=O)c2ccco2)CC1 | -8.05 |
| COC(C(=O)Nc1ccc(C(C)=O)cc1)c1ccccc1 (centres unmarked) | 12.3 |
| Cc1cccc(N2C(=O)CC(N3CCN(Cc4ccc(Cl)cc4)CC3)C2=O)c1 (centres unmarked) | -32.3 |
| Nc1nonc1C(=O)NCCNc1ncccc1[N+](=O)[O-] | -4.45 |
| O=C(Cc1cccs1)N/N=C/C=C/c1ccccc1 | 13.1 |
| Cc1c(C)c2ccc(OCC(=O)Nc3cccnc3)cc2oc1=O | 5.04 |
| COC(=O)c1c(-c2ccc(C)cc2)csc1NC(=O)C1CC=CCC1C(=O)O (centres unmarked) | -0.165 |
| Cn1c(=O)n(Cc2ccccc2F)c(=O)c2c1nc1n2CCCN1CCc1ccccc1 | 16.6 |
| COc1ccccc1C1CC(c2ccc(F)cc2)Nc2ncnn21 (centres unmarked) | -31.4 |
| Nc1nnc(SCC(=O)N2CCCCC2)s1 | 8.09 |
| Cc1ccc(NC(=O)C(Cc2ccccc2)N2C(=O)C3C4CCC(C4)C3C2=O)cc1Cl (centres unmarked) | 2.78 |
| COc1ccc(NC(=O)CC2C(=O)N(C)C(=S)N2CCc2ccc(F)cc2)cc1 (centres unmarked) | -12.6 |
| COc1cccc(C2CC(c3ccccc3C)n3nc(N)nc3N2)c1 (centres unmarked) | 1.85 |
| COc1cc(N=c2ssnc2Cl)cc(OC)c1 | -3.27 |
| O=C1CCCN1CCCNc1ncnc2c1cnn2-c1ccc(Cl)cc1 | -36.2 |
| CC(=O)c1sc(NC(=O)CS(=O)(=O)c2ccccc2)nc1C | -25.3 |
